The whole screen tested about 310,000 compounds, of which about 2,200 (0.71%) showed an effect of 50% or more. Effects have a minus sign here. This is one part of the list.

For the assay, the target named is human ether-à-go-go-related gene (hERG) potassium channel (human, UniProt Q12809). The experiment in a line: primary screen, population patch clamp on CHO cells stably expressing hERG.
human ether-à-go-go-related gene (hERG) potassium channel, sequence (Q12809 whole entry, looked up): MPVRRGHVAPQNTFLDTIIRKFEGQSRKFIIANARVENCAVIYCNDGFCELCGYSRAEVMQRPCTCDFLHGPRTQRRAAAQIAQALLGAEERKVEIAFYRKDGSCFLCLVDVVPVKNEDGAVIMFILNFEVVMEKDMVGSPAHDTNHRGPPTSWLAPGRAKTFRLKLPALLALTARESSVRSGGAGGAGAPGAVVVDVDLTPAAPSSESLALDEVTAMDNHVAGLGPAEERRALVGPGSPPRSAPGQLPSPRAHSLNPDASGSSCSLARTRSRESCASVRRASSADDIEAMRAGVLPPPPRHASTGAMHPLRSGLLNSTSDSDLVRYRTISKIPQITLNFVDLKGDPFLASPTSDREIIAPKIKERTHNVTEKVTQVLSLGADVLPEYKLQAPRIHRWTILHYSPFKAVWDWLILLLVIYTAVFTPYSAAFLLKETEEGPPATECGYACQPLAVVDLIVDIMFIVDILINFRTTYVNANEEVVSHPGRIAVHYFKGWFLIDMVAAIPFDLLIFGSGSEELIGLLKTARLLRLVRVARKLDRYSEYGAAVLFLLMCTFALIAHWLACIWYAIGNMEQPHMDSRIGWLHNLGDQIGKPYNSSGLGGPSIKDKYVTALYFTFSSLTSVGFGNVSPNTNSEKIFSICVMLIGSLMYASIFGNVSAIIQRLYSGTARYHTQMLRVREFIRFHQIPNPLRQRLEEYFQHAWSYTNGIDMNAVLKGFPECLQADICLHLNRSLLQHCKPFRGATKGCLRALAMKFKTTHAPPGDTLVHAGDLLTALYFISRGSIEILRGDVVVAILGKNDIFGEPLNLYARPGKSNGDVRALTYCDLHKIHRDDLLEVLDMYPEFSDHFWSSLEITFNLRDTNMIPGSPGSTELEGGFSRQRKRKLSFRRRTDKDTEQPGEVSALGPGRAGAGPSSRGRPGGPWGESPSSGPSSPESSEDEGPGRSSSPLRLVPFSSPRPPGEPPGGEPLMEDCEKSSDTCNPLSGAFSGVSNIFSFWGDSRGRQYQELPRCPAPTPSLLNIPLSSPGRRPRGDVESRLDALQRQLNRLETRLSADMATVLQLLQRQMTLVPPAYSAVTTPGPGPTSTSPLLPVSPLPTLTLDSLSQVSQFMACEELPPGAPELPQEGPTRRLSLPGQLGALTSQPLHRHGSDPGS
Take `CCOC(=O)c1ccc(N/C=C/C(=O)c2ccco2)cc1`: the “hERG current change (%, negative = inhibition) at 1uM” value came out at 13%.
In the case of `CC(C)CCN1CC(C(=O)NC(C)C)CC1=O` (stereo not drawn) it was 6.91%; in that of `C=CCn1c(SCCC)nc2sc3c(c2c1=O)CCc1ccccc1-3`, 17.7%.
For `Cn1nc(-c2ccc(Cl)cc2)c2cc(C(=O)N3CCOCC3)sc21`, the “hERG current change (%, negative = inhibition) at 1uM” value is given as 3.03%.
Regarding `CCCn1c(CCNc2nc(-c3ccc(OC)cc3)cs2)nc2ccccc21`, the “hERG current change (%, negative = inhibition) at 1uM” value is 2.97%.
For the molecule `CCn1c(CNS(=O)(=O)c2ccc(Br)cc2)nnc1SC`, the “hERG current change (%, negative = inhibition) at 1uM” value is 1.7%.
In the case of `N#Cc1ccc(Nc2nc(-c3ccc(O)cc3O)cs2)cc1C(F)(F)F`, the “hERG current change (%, negative = inhibition) at 1uM” value is listed as 9.17%.
With `COC(=O)COc1ccc(NC(=O)Cn2nc(-c3ccccc3)c3ccccc3c2=O)cc1`, the “hERG current change (%, negative = inhibition) at 1uM” value is 7.66%.
`O=C1NC2(CCCCC2)C(=O)N1CCS(=O)(=O)Oc1ccccc1`: the “hERG current change (%, negative = inhibition) at 1uM” value is 7.16%.
Consider `COc1cc(OC)cc(/C(N)=N/O)c1`, for which the “hERG current change (%, negative = inhibition) at 1uM” value was 12.3%.
Consider `Cc1cc(C(=O)Nc2nnc(C3CC3)s2)c(C)s1`, for which the “hERG current change (%, negative = inhibition) at 1uM” value came out at 19.3%.
As to `COc1ccccc1C(=O)NCC(=O)OCC(=O)N(CC(C)C)c1c(N)n(Cc2ccccc2)c(=O)[nH]c1=O`, the “hERG current change (%, negative = inhibition) at 1uM” value is given as 1.5%.
Regarding `OC(COc1ccc(Cl)cc1)CN1CCN(c2ccccn2)CC1` (stereo not drawn), the “hERG current change (%, negative = inhibition) at 1uM” value is recorded as -37.7%.
The same measure for `Cc1ccc(N(CCC(=O)N2CCOCC2)S(=O)(=O)c2ccccc2)cc1`: -1.88%; for `Cc1cccc(C(=O)N2c3ccccc3C(=O)OC2c2ccc3c(c2)OCO3)c1` (stereo not drawn): 9.06%; for `Br.Cc1ccccc1N=C/C=C1/C=C(c2ccccc2)OC(C)(C)O1`: 6.43%.
In the case of `O=C(CCN1CCCCCC1)Nc1ccc2c(c1)OCCO2.O=C(O)C(=O)O` it was -4.99%.
As for `CCOc1cc(/C=C2/SC(=S)N(Cc3ccccc3)C2=O)ccc1O`, the “hERG current change (%, negative = inhibition) at 1uM” value worked out at 11.3%.
With `Clc1ccc(SCCCCn2ccnc2)cc1`, the “hERG current change (%, negative = inhibition) at 1uM” value was -19%.
As for `CN(C(=O)c1ccc(NC(=O)Cc2ccc(NC(=O)C3CCCN(C(=O)C4CCCC4)C3)cc2)cc1)C1CC1` (stereo not drawn), the “hERG current change (%, negative = inhibition) at 1uM” value worked out at 13.3%.
The same measure for `O=C(NCCNC1CCC(c2ccccc2)CC1)c1ccc(F)cc1` (stereo not drawn): -11.5%; for `COc1ccc2c(c1)CCC1C2=NN(/C(C)=C/C(C)=O)C1c1cccc(F)c1` (stereo not drawn): 14.1%.
With `CC(C)(C)NC(=O)NC(=O)CN1CCN(c2ccccc2O)CC1`, the “hERG current change (%, negative = inhibition) at 1uM” value is reported as 14.9%.
For `Cc1c(C(=O)NN2CCN(C)CC2)cccc1[N+](=O)[O-]`, the “hERG current change (%, negative = inhibition) at 1uM” value was 8.23%.
As for `C#CCn1cnc2c(oc3ccccc32)c1=O`, the “hERG current change (%, negative = inhibition) at 1uM” value turned out to be 18.1%.
For the molecule `Cc1cccc(NC(=O)CCc2ccccc2)c1`, the “hERG current change (%, negative = inhibition) at 1uM” value turned out to be 3%.
With `O=C(COC(=O)CSc1ccc2ccccc2c1)Nc1ccccc1OC(F)F`, the “hERG current change (%, negative = inhibition) at 1uM” value came out at 4.9%.
For `Cc1ccc(S(=O)(=O)N2CCCC(C(=O)NCCC(C)C)C2)cc1` (stereo not drawn), the “hERG current change (%, negative = inhibition) at 1uM” value is on record as -9.45%.
Regarding `COc1ccc(Cl)cc1NC(=O)CN(C)C(=O)c1cc(-c2ccncc2)nc2ccccc12`, the “hERG current change (%, negative = inhibition) at 1uM” value amounted to 14%.
The same measure for `CCc1c(C)c2nncn2[nH]c1=O`: 4.98%; for `FC(F)(F)Oc1ccc(-c2cn3cccnc3n2)cc1`: 14.8%; for `CC(C)(C)NC(=O)c1ccc2c(c1)N(CC(=O)N1CCCC1)C(=O)C(C)(C)O2`: 12.1%.
Consider `COC(=O)c1cc(S(=O)(=O)N2CCN(c3ccccc3F)CC2)c[nH]1`, for which the “hERG current change (%, negative = inhibition) at 1uM” value was determined as 9.94%.
With `Cc1coc(C)c1C(=O)CC1(O)C(=O)N(C)c2ccc(Cl)cc21` (stereo not drawn), the “hERG current change (%, negative = inhibition) at 1uM” value was found to be 8.24%.
In the case of `COc1ccc(CCNS(=O)(=O)c2cccc(C(=O)O)c2)cc1OC`, the “hERG current change (%, negative = inhibition) at 1uM” value worked out at 9.7%.
Regarding `CCCc1cc(=O)[nH]c(SCC(=O)c2c(C)[nH]c3ccccc23)n1`, the “hERG current change (%, negative = inhibition) at 1uM” value came to 0.976%.
Take `Cc1cn([C@@H](CCCCNC(=O)OC(C)(C)C)C(=O)NCCCCCCCCCCC(=O)N2CCN(C(=O)OC(C)(C)C)CC2)nn1`: the “hERG current change (%, negative = inhibition) at 1uM” value is reported as 15.5%.
On to `CCOC(=O)N1CCN(C(=O)c2ccc(N(Cc3ccc(Cl)cc3)S(C)(=O)=O)cc2)CC1`, for which the “hERG current change (%, negative = inhibition) at 1uM” value was found to be 3.09%.
Take `CN(C)/C=C(\C#N)C(=O)Nc1ccccc1`: the “hERG current change (%, negative = inhibition) at 1uM” value is given as 12.6%.
Turning to `COCCN(C(=O)c1ccc(OCC(C)C)cc1)c1c(N)n(Cc2ccccc2)c(=O)[nH]c1=O`, the “hERG current change (%, negative = inhibition) at 1uM” value worked out at 20.5%.
With `Cc1ccc(CNS(=O)(=O)c2ccc3c(c2)C(C)(C)C(=O)N3C)cc1`, the “hERG current change (%, negative = inhibition) at 1uM” value stood at 7.06%.
In the case of `CCC(=O)NCCCOc1ccccc1` it was 12.3%.
For the molecule `COc1ccc(NC(=O)CSc2nnc(Cn3c(=O)sc4ccccc43)n2C)cc1OC`, the “hERG current change (%, negative = inhibition) at 1uM” value is 6.6%.
In the case of `CCS(=O)(=O)N1N=C(c2cccs2)CC1c1cc2cc(C)ccc2nc1Cl` (stereo not drawn) it was 0.868%; in that of `COc1ccc(OC)c(NC(=O)COc2ccc3c(c2)CCC3)c1`, 9.63%.

These data come from paper PMC4336329 (PLoS ONE, 2015).
